# Publication PMC12860355
# pKd: −log10 of the molar value.
# Target: monomeric actin (ATP–G-actin), chicken skeletal muscle (chicken) (UniProt P68139)
# Experiment: SPR; actin coupled to CM5 chip; cofilin as analyte (Fig. S3, A and B); 1X HBS-EP+
substance,measurement,value
"human cofilin-1, wild type (a stretch of the chain, letters omitted) (natural protein; other documents disagree on this pair)",pKd,4.70
